Test results reported in publication PMC6018503.
No constants are given. Whether binding was seen depends on the method and setting. For some of these results: Binding seen in cells or lysates may run through a third protein. Some binding calls cover weakened binding; strength is not graded here.

Sequences of proteins named here, by UniProt entry; tags and fusion partners are left off.
UniProt Q93ZX1: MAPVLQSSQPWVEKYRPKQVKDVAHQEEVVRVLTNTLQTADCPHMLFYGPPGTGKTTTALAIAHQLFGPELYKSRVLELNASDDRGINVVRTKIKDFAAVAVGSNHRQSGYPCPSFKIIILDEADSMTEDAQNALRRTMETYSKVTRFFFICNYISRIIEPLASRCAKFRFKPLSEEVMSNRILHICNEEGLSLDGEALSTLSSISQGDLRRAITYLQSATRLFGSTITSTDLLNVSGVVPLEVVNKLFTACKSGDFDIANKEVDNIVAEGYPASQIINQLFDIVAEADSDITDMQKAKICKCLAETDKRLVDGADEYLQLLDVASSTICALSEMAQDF
UniProt Q9FXM3: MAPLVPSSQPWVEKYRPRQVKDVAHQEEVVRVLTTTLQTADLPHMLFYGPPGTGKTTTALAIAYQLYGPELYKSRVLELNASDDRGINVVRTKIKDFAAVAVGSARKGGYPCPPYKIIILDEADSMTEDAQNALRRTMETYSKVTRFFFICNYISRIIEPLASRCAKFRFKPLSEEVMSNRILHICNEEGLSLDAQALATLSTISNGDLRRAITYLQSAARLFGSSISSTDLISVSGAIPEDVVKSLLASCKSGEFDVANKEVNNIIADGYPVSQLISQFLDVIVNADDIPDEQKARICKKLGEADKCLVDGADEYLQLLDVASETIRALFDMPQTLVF

T1: AtRFC1 (Arabidopsis thaliana) (UniProt Q9C587)
T1 sequence: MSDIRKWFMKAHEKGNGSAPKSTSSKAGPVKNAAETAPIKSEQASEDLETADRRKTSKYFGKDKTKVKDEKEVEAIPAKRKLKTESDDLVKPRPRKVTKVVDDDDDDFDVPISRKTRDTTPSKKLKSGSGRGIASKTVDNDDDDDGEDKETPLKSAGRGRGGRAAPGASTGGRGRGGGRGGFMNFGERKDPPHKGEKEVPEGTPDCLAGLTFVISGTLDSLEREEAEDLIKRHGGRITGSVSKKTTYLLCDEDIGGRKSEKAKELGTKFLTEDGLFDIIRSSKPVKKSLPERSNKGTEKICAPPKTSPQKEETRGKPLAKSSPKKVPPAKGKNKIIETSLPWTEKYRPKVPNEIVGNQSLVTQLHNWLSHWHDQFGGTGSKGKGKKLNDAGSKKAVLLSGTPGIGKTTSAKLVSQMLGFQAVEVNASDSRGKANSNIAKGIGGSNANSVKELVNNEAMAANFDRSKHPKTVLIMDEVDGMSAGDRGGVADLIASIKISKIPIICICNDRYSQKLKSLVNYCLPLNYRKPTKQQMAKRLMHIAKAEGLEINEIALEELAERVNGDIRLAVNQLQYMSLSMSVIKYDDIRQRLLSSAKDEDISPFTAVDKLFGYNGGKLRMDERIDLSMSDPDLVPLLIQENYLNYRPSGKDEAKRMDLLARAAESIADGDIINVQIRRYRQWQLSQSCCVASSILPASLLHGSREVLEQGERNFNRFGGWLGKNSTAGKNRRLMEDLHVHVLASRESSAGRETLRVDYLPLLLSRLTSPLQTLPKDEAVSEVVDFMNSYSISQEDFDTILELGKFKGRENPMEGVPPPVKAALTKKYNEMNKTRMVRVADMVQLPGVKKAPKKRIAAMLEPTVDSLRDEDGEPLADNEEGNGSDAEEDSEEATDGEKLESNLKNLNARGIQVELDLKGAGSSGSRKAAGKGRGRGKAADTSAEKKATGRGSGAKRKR

T2: OsRFC1 (rice (Oryza sativa)) (UniProt Q2R2B4)
T2 sequence: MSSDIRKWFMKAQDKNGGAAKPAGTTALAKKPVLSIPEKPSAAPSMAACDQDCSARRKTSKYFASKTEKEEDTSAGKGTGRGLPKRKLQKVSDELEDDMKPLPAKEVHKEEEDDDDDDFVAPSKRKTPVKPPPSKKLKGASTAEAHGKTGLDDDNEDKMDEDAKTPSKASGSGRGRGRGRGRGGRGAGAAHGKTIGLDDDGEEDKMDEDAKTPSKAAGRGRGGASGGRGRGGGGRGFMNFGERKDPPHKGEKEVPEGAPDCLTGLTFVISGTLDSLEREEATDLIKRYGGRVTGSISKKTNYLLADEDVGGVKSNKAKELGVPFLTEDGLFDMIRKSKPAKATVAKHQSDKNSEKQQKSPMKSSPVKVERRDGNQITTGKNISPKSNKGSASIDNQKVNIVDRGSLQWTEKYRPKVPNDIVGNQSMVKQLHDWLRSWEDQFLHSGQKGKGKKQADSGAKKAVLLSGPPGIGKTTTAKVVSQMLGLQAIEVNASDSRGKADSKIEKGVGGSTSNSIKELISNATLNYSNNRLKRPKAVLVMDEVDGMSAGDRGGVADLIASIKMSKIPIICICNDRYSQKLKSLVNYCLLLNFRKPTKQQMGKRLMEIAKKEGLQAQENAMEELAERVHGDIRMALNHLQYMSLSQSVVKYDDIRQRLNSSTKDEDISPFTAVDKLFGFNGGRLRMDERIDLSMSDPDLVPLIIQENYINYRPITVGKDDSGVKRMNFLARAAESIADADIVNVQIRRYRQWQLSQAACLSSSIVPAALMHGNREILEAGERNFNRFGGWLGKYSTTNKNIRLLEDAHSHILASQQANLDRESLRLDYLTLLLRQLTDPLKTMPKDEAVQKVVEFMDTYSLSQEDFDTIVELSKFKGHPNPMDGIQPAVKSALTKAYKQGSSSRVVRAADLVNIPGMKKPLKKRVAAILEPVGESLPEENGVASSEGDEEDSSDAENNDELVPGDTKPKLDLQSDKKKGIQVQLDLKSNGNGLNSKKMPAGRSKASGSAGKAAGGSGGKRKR

T3: AtRFC2 (Arabidopsis thaliana) (UniProt Q9CAM7)
T3 sequence: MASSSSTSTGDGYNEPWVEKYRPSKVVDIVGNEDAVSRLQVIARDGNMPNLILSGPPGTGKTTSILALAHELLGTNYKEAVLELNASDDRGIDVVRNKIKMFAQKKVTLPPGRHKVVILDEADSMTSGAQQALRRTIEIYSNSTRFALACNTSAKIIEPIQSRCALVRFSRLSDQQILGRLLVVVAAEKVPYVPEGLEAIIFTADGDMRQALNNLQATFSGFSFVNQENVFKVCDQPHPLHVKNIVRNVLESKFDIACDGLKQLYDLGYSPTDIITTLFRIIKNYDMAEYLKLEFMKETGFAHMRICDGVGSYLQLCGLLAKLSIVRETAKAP

T4: OsRFC4 (rice (Oryza sativa)) (UniProt Q7XRX1)
T4 sequence: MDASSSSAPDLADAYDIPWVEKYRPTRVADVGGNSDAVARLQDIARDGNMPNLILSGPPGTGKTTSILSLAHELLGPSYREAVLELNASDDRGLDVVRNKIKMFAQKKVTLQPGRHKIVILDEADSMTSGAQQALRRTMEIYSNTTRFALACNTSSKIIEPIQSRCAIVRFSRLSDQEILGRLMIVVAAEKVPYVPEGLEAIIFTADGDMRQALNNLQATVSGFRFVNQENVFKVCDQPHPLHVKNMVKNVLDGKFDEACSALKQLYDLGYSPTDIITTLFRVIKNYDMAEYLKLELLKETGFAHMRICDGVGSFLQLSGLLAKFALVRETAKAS


Tests used:
[1] = target: T1, AtRFC1 (Arabidopsis thaliana); assay: split reporter; BiFC in tobacco leaf epidermal cells with truncated AtRFC proteins, pairs that include AtRFC1 or a truncated AtRFC1; whether the other small subunits were co-expressed is not said
[2] = target: AtRFC4 (Arabidopsis thaliana) (UniProt Q93ZX1); assay: split reporter; BiFC; YFP^N (aa 1-155) and YFP^C (aa 156-239) fusions (pCAMBIA-SPYNE, pCAMBIA-SPYCE) co-expressed in tobacco (Nicotiana benthamiana) leaf epidermal cells through Agrobacterium GV3101; confocal microscopy of YFP; only the two named fusions
[3] = target: AtRFC4 (Arabidopsis thaliana) (UniProt Q93ZX1); assay: two-hybrid; yeast two-hybrid; full-length ORFs in pGADT7 (AD) and pGBKT7 (BD); co-transformed strains spotted on SD-L-T and SD-L-T-H-A plates; empty AD or BD plasmids as negative controls
[4] = target: T2, OsRFC1 (rice (Oryza sativa)); assay: split reporter; BiFC; YFP^N (aa 1-155) and YFP^C (aa 156-239) fusions (pCAMBIA-SPYNE, pCAMBIA-SPYCE) co-expressed in tobacco (Nicotiana benthamiana) leaf epidermal cells through Agrobacterium GV3101; confocal microscopy of YFP; only the two named fusions
[5] = target: OsRFC2 (rice (Oryza sativa)) (UniProt Q9FXM3); assay: as above
[6] = target: T3, AtRFC2 (Arabidopsis thaliana); assay: as above
[7] = target: T4, OsRFC4 (rice (Oryza sativa)); assay: two-hybrid; yeast two-hybrid; full-length ORFs in pGADT7 (AD) and pGBKT7 (BD); co-transformed strains spotted on SD-L-T and SD-L-T-H-A plates; empty AD or BD plasmids as negative controls

Binder | binding [1] | binding [2] | binding [3] | binding [4] | binding [5] | binding [6] | binding [7]
AtRFC2 (protein, UniProt Q9CAM7 1-333) MASSSSTSTGDGYNEPWVEKYRPSKVVDIVGNEDAVSRLQVIARDGNMPNLILSGPPGTGKTTSILALAHELLGTNYKEAVLELNASDDRGIDVVRNKIKMFAQKKVTLPPGRHKVVILDEADSMTSGAQQALRRTIEIYSNSTRFALACNTSAKIIEPIQSRCALVRFSRLSDQQILGRLLVVVAAEKVPYVPEGLEAIIFTADGDMRQALNNLQATFSGFSFVNQENVFKVCDQPHPLHVKNIVRNVLESKFDIACDGLKQLYDLGYSPTDIITTLFRIIKNYDMAEYLKLEFMKETGFAHMRICDGVGSYLQLCGLLAKLSIVRETAKAP |  | binds | binds |  |  |  | 
AtRFC2 Δ294–333 (domain or fragment, UniProt Q9CAM7 1-293) MASSSSTSTGDGYNEPWVEKYRPSKVVDIVGNEDAVSRLQVIARDGNMPNLILSGPPGTGKTTSILALAHELLGTNYKEAVLELNASDDRGIDVVRNKIKMFAQKKVTLPPGRHKVVILDEADSMTSGAQQALRRTIEIYSNSTRFALACNTSAKIIEPIQSRCALVRFSRLSDQQILGRLLVVVAAEKVPYVPEGLEAIIFTADGDMRQALNNLQATFSGFSFVNQENVFKVCDQPHPLHVKNIVRNVLESKFDIACDGLKQLYDLGYSPTDIITTLFRIIKNYDMAEYLKL | no binding | no binding |  |  |  |  | 

More lines, now with the values ahead:

binding [1] | binding [2] | binding [3] | binding [4] | binding [5] | binding [6] | binding [7] | Binder
no binding | binds |  |  |  |  |  | AtRFC2 Δ314–333 (domain or fragment, UniProt Q9CAM7 1-313) MASSSSTSTGDGYNEPWVEKYRPSKVVDIVGNEDAVSRLQVIARDGNMPNLILSGPPGTGKTTSILALAHELLGTNYKEAVLELNASDDRGIDVVRNKIKMFAQKKVTLPPGRHKVVILDEADSMTSGAQQALRRTIEIYSNSTRFALACNTSAKIIEPIQSRCALVRFSRLSDQQILGRLLVVVAAEKVPYVPEGLEAIIFTADGDMRQALNNLQATFSGFSFVNQENVFKVCDQPHPLHVKNIVRNVLESKFDIACDGLKQLYDLGYSPTDIITTLFRIIKNYDMAEYLKLEFMKETGFAHMRICDGVGSY
no binding | no binding |  |  |  |  |  | AtRFC5 Δ335–354 (domain or fragment, UniProt Q8VXX4 1-334) MLWVDKYRPKSLDKVIVHEDIAQKLKKLVSEQDCPHLLFYGPSGSGKKTLIMALLKQIYGASAEKVKVENRAWKVDAGSRTIDLELTTLSSTNHVELTPSDAGFQDRYIVQEIIKEMAKNRPIDTKGKKGYKVLVLNEVDKLSREAQHSLRRTMEKYSSSCRLILCCNSSSKVTEAIKSRCLNVRINAPSQEEIVKVLEFVAKKESLQLPQGFAARIAEKSNRSLRRAILSLETCRVQNYPFTGNQVISPMDWEEYVAEIATDMMKEQSPKKLFQVRGKVYELLVNCIPPEVILKRLLHELLKKLDSELKLEVCHWAAYYEHRMRLGQKAIFHI
 | binds |  | binds | binds | binds | binds | OsRFC3 (protein, UniProt Q6YZ54 1-361) MAGATAATPMDIDAAAPPPGAAAKGKAPLSSTPGGRAAPWVEKYRPQSLGDVAAHRDIVDTIDRLTNENRLPHLLLYGPPGTGKTSTILAVARKLYGSQYGNMILELNASDERGIDVVRQQIQDFASARSLSFGAKQSVKMVLLDEADAMTKDAQFALRRVIEKHTRSTRFALICNHVNKIIPALQSRCTRFRFAPLDGTHVRERLKHIIQSEGLDVDDGGLTALVRLSNGDMRKALNILQSTHMASKQITEEAVYLCTGNPMPKDIEQIAYWLLNESFSTSFKCISDMKMRKGLALVDIIREVTMFVFKIQMPSDVRIKLINDLADIEYRLSFACNDKLQLGALISTFTGARTAMVAAAH
